Test results reported in PubChem BioAssay AID1346428 (National Center for Advancing Translational Sciences (NCATS), 2018).
The campaign covered roughly 48,000 compounds. About 1,200 (2.5%) were called active. Inconclusive results (about 2%) are left out.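 How the source made its calls: active means activation of at least 60% and not above a set upper limit (about 1 call in 100 departs from these limits); inconclusive means activation of 40% to 60%, or above that upper limit; inactive means activation under 40%.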 The list shows a part of the results.

Target: Probable G-protein coupled receptor 32 (Homo sapiens) (UniProt O75388)
Assay: qHTS for Agonists of Human Resolvin D1 Receptor DRV1; further: 0% is about no effect
Conditions: CHO-K1 GPR32 beta-arrestin PathHunter luminescence, 90 min; at 76.9 µM; hits give high values; zero percent set by DMSO-only wells
How it was run: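 Agonism was scored as beta-arrestin recruitment to ProLink-fused GPR32 in stably transfected CHO-K1 cells, giving a chemiluminescent beta-Gal signal; compounds were incubated 90 min at 37 °C.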

Chain of UniProt O75388 (O75388 whole entry, looked up): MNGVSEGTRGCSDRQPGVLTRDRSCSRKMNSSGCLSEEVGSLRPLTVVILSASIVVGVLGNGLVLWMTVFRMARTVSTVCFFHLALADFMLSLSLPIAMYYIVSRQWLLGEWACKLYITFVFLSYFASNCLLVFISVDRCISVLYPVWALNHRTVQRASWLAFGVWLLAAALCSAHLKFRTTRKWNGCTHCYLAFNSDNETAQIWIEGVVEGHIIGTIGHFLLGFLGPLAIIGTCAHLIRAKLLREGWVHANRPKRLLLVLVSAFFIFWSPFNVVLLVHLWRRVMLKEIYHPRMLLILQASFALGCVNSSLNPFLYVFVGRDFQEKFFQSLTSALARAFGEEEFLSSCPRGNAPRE

Compound	activation
CCOC(=O)c1ccc(N2C(=O)c3n[nH]c(-c4cccs4)c3C2c2cccc(OC)c2)cc1 (stereo not drawn)	inactive: -9.82%
CCOc1ccc(-n2c(=O)c3c4c(sc3n(CC(=O)NC(C)CC)c2=O)CCC4)cc1 (stereo not drawn)	inactive: -14%
O=S(=O)(c1ccc(Cl)cc1)c1nnn2c1nc(NCc1cccs1)c1sccc12	inactive: -14.8%
COc1ccc(C)cc1NC(=O)CSc1nc(=O)[nH]c2c1CCCC2	inactive: -4.28%
CCC(CC)C(=O)N1CCc2cc(OC)c(OC)cc2C1COc1ccc(C(=O)OC)cc1 (stereo not drawn)	inactive: -16.7%
COc1ccc(-c2nnc(Nc3ccc(OC)c(C(N)=O)c3)c3ccccc23)cc1	inactive: -26.5%
CCS(=O)(=O)c1nc(S(=O)(=O)c2ccc(C)cc2)c(NC(C)c2ccccc2)s1 (stereo not drawn)	inactive: -22.7%
CCOc1ccc(-n2cc(-c3ccccc3)c3c(N4CCC(C)CC4)ncnc32)cc1	inactive: -39%
CCOc1ccccc1NC(=O)C(=O)c1cc(C)n(-c2ccc(F)cc2)c1C	inactive: 0.0694%
Cc1cc(C)cc(Nc2ncnc3onc(-c4ccc(F)cc4)c23)c1	inactive: -8.48%
Cc1ccc(Nc2c(-c3ccc(C)cc3)nc3ccc(C)cn23)cc1	inactive: -23.7%
Cc1ccc(S(=O)(=O)c2nc(-c3ccc(F)cc3)oc2SCC(=O)c2ccccc2)cc1	inactive: -18%
CCc1ccc2oc(-c3cccc(NC(=O)C(C)(C)Oc4ccc(Br)cc4)c3)nc2c1	inactive: -10.3%
CCc1ccc(S(=O)(=O)NCc2nc3cccnc3n2Cc2ccccc2Cl)cc1	inactive: -20.9%
CCCOc1ccc(CNC(=O)Cn2cc3c(n2)-c2c(oc(C(=O)N4CCOCC4)c2C)CC3)cc1	inactive: -9.04%
COc1cc(NC(=O)NC(C)c2c(-n3cccc3)sc3c2CCN(C)C3)cc(OC)c1 (stereo not drawn)	inactive: -17%
COc1cccc(-n2c(SCC(=O)N3CCCc4ccccc43)nc3c([nH]c4ccccc43)c2=O)c1	inactive: -5.7%
CCOc1ccc(CNC(=O)c2cc3c(s2)-c2ccccc2OC3)cc1	inactive: -0.654%
O=C(c1ccc2c(c1)CCCC2)N1CCN(c2nc3ccc(F)cc3s2)CC1	inactive: -7.69%
O=C(CCSCc1cccc(F)c1)NCc1ccccc1	inactive: 4.34%
COc1ccc(Cl)cc1NC(=O)Cn1c(=O)n(CCCC(=O)NCCc2ccc(OC)c(OC)c2)c(=O)c2ccccc21	inactive: 9.05%
CCc1ccc(NC(=O)c2ccc3c(O)c(S(=O)(=O)c4ccccc4)c(=O)[nH]c3c2)cc1	inactive: 5.77%
COc1ccccc1C(=O)Nc1ccc(OCc2cc(=O)n3cccc(C)c3n2)cc1	inactive: -2.82%
Cc1c(NC(=O)c2ccc(Cl)cc2)cc(C(C)C)c(O)c1S(=O)(=O)c1ccccc1	inactive: 6.34%
O=C(NCC1CCN(Cc2ccccc2Cl)CC1)c1cc2ccc3cccnc3c2[nH]1	inactive: -5.42%
COc1ccccc1CNC(=O)CCc1c(C)nn(-c2ccc(N3CCCC3)nn2)c1C	inactive: -17.6%
Cc1cc(=O)n(Cc2ccccc2Cl)c2c1c(C)nn2-c1ccccc1	inactive: -0.0911%

Compound	activation
Cc1cc(NC(=O)CSc2nc3c([nH]c4ccccc43)c(=O)n2-c2ccc(Cl)cc2)no1	inactive: 0.3%
COc1ccccc1CNC(=O)CCS(=O)(=O)c1ccc2c(c1)CC(C)N2C(=O)C1CC1 (stereo not drawn)	inactive: -1.25%
Cc1ccc(CSc2nc3ccsc3c(=O)n2CCC(C)C)cc1	inactive: -36.9%
O=c1oc2ccc(F)cc2cc1-c1nc(-c2cccs2)no1	inactive: -3.04%
COc1ccc(CC(=O)Nc2nnc3n2CCS3)cc1	inactive: 1.22%
O=C(CC1Oc2ccccc2NC1=O)NCc1ccc(F)cc1 (stereo not drawn)	inactive: -0.137%
CCn1c2c(c(=O)n3ncc(C(=O)Nc4ccc(F)cc4Cl)c13)CN(Cc1ccc(OC)cc1)CC2	inactive: -11.1%
CCN1CCN(C(=O)c2ccc3c(c2)N(Cc2ccc(F)cc2)C(=O)c2ccccc2S3(=O)=O)CC1	inactive: -24.9%
Cc1cccc(OCc2nnc(-c3ccccc3)o2)c1	inactive: -14.2%
CCOc1ccc(NC(=O)c2oc(=O)c3ccccc3c2-c2ccc(C)cc2)cc1	inactive: 10.1%
COc1cccc(NC(=O)c2sc3nc(C)c(C(=O)Nc4ccc(C)cc4C)c(-c4cccs4)c3c2N)c1	inactive: -19.8%
CCOc1ccc(-n2c(Cc3ccccc3)nnc2SCc2nc(-c3cccs3)no2)cc1	inactive: 5.24%
Cc1ccc(-c2nc(-c3cc4cccc(OCc5cccc(F)c5)c4oc3=O)no2)cc1	active: 82.2%
Cc1ccn2c(Nc3c(C)cccc3C)c(-c3ccc(Cl)s3)nc2c1	inactive: 1.64%
Cc1cc(C)cc(NC(=O)C2CCN(S(=O)(=O)c3c(C)noc3/C=C/c3ccco3)CC2)c1	inactive: -35.6%
Cc1ccc2scc(N3CCN(c4cccc(C(F)(F)F)c4)CC3)c(=O)c2c1	inactive: -23.2%
CCCCN(CCCC)C1=C(C(=O)c2ccccc2)N(CC)S(=O)(=O)c2ccccc21	inactive: -72.7%
COC(=O)CN1C(=O)C(C)(C)c2cc(S(=O)(=O)NCc3ccc(Cl)cc3)ccc21	inactive: 8.25%
COCCCNc1nc2c(c(=O)n(C)c(=O)n2C)n1Cc1ccccc1	inactive: -1.35%
COCCOC(=O)C1=C(C)N=C2SCCC(=O)N2C1c1ccc(OCc2ccccc2)c(OC)c1 (stereo not drawn)	inactive: -25%
COc1cccc(-c2[nH]c3c(c2-c2c(-n4cccc4)n(C)c(=O)[nH]c2=O)c(=O)[nH]c(=O)n3C)c1	inactive: 24.3%
CN(C)c1ccc(CNC(=O)CCn2c(=O)c3cccn3c3ccc(F)cc32)cc1	inactive: -0.944%
COc1ccccc1N1CCN(c2cc(C)nc3c(-c4ccc(Cl)cc4)c(C)nn23)CC1	inactive: 7.14%
CCc1nnc2c(NCc3cccc(OC)c3)nc3ccccc3n12	inactive: 10.1%
COCCNC(=O)CCSc1nc(-c2ccc3c(c2)OCO3)cc(C(F)(F)F)n1	inactive: -2.63%
Cc1ccc(C(=O)N2CCc3cc(CNC(=O)c4ccnn4C)ccc32)cc1	inactive: -15.3%
